The subject of experiment [1] is influenza virus. Description: Clinical test (Ph3: adults and adolescents): time to alleviation of influenza symptoms.
In experiment [2] the test system is influenza virus. To be noted: 20 years old or older and younger than 65 years old.
In experiment [3] the test system is influenza virus. Description: Clinical test (Ph3: child): time to alleviation of influenza symptoms. To be noted: patients 6 months old or older and younger than 12 years old; single oral 5, 10, 20 or 40 mg by body weight; ITTI.
Where [4] appears, read: 20 years old or older and younger than 65 years old, Compound II-6 single 40 or 80 mg, Oseltamivir 75 mg twice a day for 5 days.

As for `CCOC(=O)C1=C[C@@H](OC(CC)CC)[C@H](NC(C)=O)[C@@H](N)C1` [Oseltamivir, reference compound], the “Time to alleviation of influenza symptoms, median” value in experiment [1] (setting [4]) worked out at 53.8 h. Also, the “Time (median) to termination of viral shedding based on virus titer” value in experiment [2] was 72.0 h.
Turning to `COC(=O)OCOc1c2n(ccc1=O)N([C@@H]1c3ccccc3SCc3c1ccc(F)c3F)[C@@H]1COCCN1C2=O` [II-6], the “Time to alleviation of influenza symptoms, difference between groups vs placebo” value in experiment [1] (12 years old or older and younger than 65 years old) was -26.5 h. Besides, the “Time to alleviation of influenza symptoms, median” value worked out at 53.7 h in experiment [1] (12 years old or older and younger than 65 years old, single oral 40 or 80 mg depending on body weight, ITTI); 53.5 h in experiment [1] (setting [4]). Moreover, the “Time to alleviation of influenza symptoms, difference between groups vs Oseltamivir” value in experiment [1] (20 years old or older and younger than 65 years old) is -0.3 h. Besides, in experiment [2], the “Time (median) to termination of viral shedding based on virus titer” value turned out to be 24.0 h. Moreover, the “Time (median) to alleviation of influenza symptoms (cough, runny nose/nasal congestion, fever)” value in experiment [3] is 44.6 h.

The record behind these values is US10759814B2, “Pharmaceutical compositions containing substituted polycyclic pyridone derivatives and prodrug thereof” (priority 2016, dated 2020).
